This passage reports EC50 results from patent US20240247060A1 (SANYOU BIOPHARMACEUTICALS, published 2024).

Assay [1] deals with T1, human CLDN18.2 (human).
T1 construct: Full-length human CLDN18.2 overexpressed on HEK293, NUGC4 and KATOIII cells; also called hCLDN18.2
Briefly: flow cytometry (FACS) on hCLDN18.2-NUGC4 cells. The procedure: (§1) hCLDN18.2-NUGC4 cells in the exponential growth phase were collected, centrifuged at 300 g to remove the supernatant; the cells were resuspended in FACS buffer (PBS containing 1% BSA) and counted and the cell suspension density was adjusted to 2×10⁶ cells/mL. Subsequently, hCLDN18.2-NUGC4 cells were added into a 96-well round-bottom plate at 100 μL per well, and centrifuged at 300 g to remove the supernatant. Different concentrations of heavy-chain antibody NA3SH1-T4, heavy-chain antibody NA3SH1-T4-hVH6, heavy-chain antibody NA3SH1 as a control, and human IgG1 isoform antibody as an isoform control were added to the corresponding wells. The cells were resuspended and placed at 4° C. for incubation for 1 h. The incubated cell mixture was washed 3 times, PE-labeled anti-human-IgG-Fc flow cytometry antibody (Abcam, catalog number: 98596) was add, resuspended and placed at 4° C. for incubation for 30 minutes. The incubated cell mixture was washed 3 times, 200 μL of FACS buffer was added to resuspend the cells, and finally detected and analyzed by a flow cytometer (Beckman, CytoFLEX AOO-1-1102). Data were analyzed using PRISM™ (GraphPad Software, San Diego, CA), and EC₅₀ values were calculated.
In general terms: In flow cytometry, cells or beads pass a laser one at a time.

Assay [2] has as its target T1, human CLDN18.2. Briefly: flow cytometry (FACS) on hCLDN18.2-HEK293 cells. The protocol: as §1, with “hCLDN18.2-HEK293” for “hCLDN18.2-NUGC4”
For assay [3], the target named is T1, human CLDN18.2. Briefly: flow cytometry (FACS) on hCLDN18.2-KATOIII cells.
T1 sequence (chain, as listed by the source limits assumed): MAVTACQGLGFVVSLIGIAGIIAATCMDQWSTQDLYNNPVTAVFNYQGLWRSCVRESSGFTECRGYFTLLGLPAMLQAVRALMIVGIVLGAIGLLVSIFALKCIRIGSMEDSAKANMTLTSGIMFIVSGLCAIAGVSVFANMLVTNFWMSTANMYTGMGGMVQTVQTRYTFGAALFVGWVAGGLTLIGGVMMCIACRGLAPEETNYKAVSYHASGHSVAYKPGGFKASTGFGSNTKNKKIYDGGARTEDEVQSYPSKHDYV

For orientation: EC50 means the concentration needed to bring the measured effect to its halfway point. Low readings indicate an effect from little substance, high ones a need for much substance.

B1: anti-CLDN18.2 heavy-chain antibody NA3SH1-T4 (Fc fusion)
heavy: QVQLVESGGGLVQPGGSLRLSCAASGSIFHIPVMGWYRQAPGKQRELVAGISRGGTTNYGDSVKGRFTISRDNAKNTVYLQMNSLKPEDTAVYYCNVLVVSGIGSTLEVWGQGTLVTVSS[sequence of human IgG1 Fc omitted]
notes: no light chain
With B1, the results for the EC50 with human CLDN18.2 [1], with human CLDN18.2 [2] and with human CLDN18.2 [3] were 0.405 µg/mL, 0.274 µg/mL and 0.33 µg/mL, respectively.

B2: anti-CLDN18.2 heavy-chain antibody NA3SH1 (Fc fusion)
heavy: QVQLVESGGGLVQPGGSLRLSCAASGSIFNIPVMGWYRQAPGKQRELVAGISTGGTTNYGDSVKGRFTISRDNAKNTVYLQMNSLKPEDTAVYYCNVLVVSGIGSTLEVWGQGTLVTVSS[sequence of human IgG1 Fc omitted]
notes: no light chain; also called control heavy-chain antibody NA3SH1; heavy-chain antibody NA3SH1 as a control
With B2, the EC50 with human CLDN18.2 [1] was determined as 2.15 µg/mL; in the assay with human CLDN18.2 [2], 0.536 µg/mL; in the assay with human CLDN18.2 [3] it was 0.618 µg/mL.

B3: anti-CLDN18.2 heavy-chain antibody NA3SH1-T4-hVH6 (Fc fusion)
heavy: QVQLVESGGGLVQPGGSLRLSCAASGSIFHIPVMGWYRQAPGKGLELVAGISRGGTTNYADSVKGRFTISRDNAKNTLYLQMNSLRAEDTAVYYCNVLVVSGIGSTLEVWGQGTLVTVSS[sequence of human IgG1 Fc omitted]
notes: no light chain
Turning to B3, the EC50 is 0.847 µg/mL with human CLDN18.2 [1], 0.31 µg/mL with human CLDN18.2 [2] and 0.398 µg/mL with human CLDN18.2 [3].
